± gives the standard deviation of the averaged measurements. The list shows a part of the results.

The test relates to PfAP2-G AP2 domain (GST-tagged). Briefly: gcPBM binding intensity (ln(normalized median fluorescence intensity)); higher = stronger DNA binding. A digest of the protocol:
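GST-tagged P. falciparum DNA-binding domains, expressed in E. coli (about 25 μg on average), were applied for 1 h to an Agilent 4 × 180k array of primer-extended double-stranded 36-bp intergenic genomic probes plus negative controls. The binding buffer was 1× PBS with 1% milk, 0.2 mg/ml BSA, 0.5% salmon testes DNA and 0.03% Triton X-100. Bound protein was detected with Alexa488 anti-GST antibody and scanned at 488 nm. Binding intensity is the highest Masliner-normalised natural-log median intensity across replicate spots of either probe orientation.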
On to “AAAAAAATTAAATCAAGTACTCATTCTTAAATTATA [XGTACX_site1274]”, for which the “gcPBM binding intensity (ln)” value was determined as 11.1 ± 0.6. Turning to “TATATAAACATATAAACATGCAATATATATATGTTA [TGCATGCA_site765]”, the “gcPBM binding intensity (ln)” value amounted to 9.405 ± 0.078. For “TTTTTAAATTATTTGAAAAAAAGAAAATTATAAACA [CACACA_negctrl_site1599]” the value was 9.76 ± 0.057; for “AACAGAAGCACATACACACACTCAAAAAAAAAAAAA [CACACA_site5652]”, 10.1 ± 0.43; for “TAAATAAGGAAGGAAACACACATTAAAAAATAAATA [CACACA_site618]”, 10.03 ± 0.057. The figure for “ATTTTATTCTAAAAAGGTACACATATTATTTTATGA [XGTACX_site7233]” is 11.3 ± 0.91. For “CATGTATAATATAATACACACTATATAATATACACC [CACACA_site5267]” the value was 10.1 ± 0.19. As for “ATTAATATATATGGATGTACTTATGTATGTATGCAT [XGTACX_site2263]”, the “gcPBM binding intensity (ln)” value was determined as 11.1 ± 0.52. For “ATAATAATATATATTACACACGCATCGTTCATTTAT [CACACA_site8752]”, the “gcPBM binding intensity (ln)” value came to 9.97 ± 0.042.

Turning to “GGAAAAACCATTCGCACACACACATAATATATAATA [CACACA_site1424]”, the “gcPBM binding intensity (ln)” value came out at 10.1 ± 0.27. For “CTTAAAAAAAAAAAATGTACACATAAAAAAAATACA [XGTACX_site6700]” the value was 11.5 ± 0.94; for “TTTAATTGATAATGAAGACAATTATATGCATCCAAA [TGCATGCA_negctrl_site138]”, 9.965 ± 0.021; for “TTATTGTCTTCTCATATACACACTTTTATGACTATC [CACACA_site3142]”, 10.3 ± 0.27. Regarding “TCTTACTAATATCGCACACACATATGTAGACGGGAT [CACACA_site87]”, the “gcPBM binding intensity (ln)” value was 10.2 ± 0.16. In the case of “TATTTATATGGACACACACACATATAAATAAATAAA [CACACA_site6346]”, the “gcPBM binding intensity (ln)” value came out at 11 ± 0.83. Turning to “ATGGCCATAATATAGACACACATATATAAATATATA [CACACA_site2230]”, the “gcPBM binding intensity (ln)” value is 10.1 ± 0.35. “CGATATGTTCAATATTGTACTATTTATAATAATATG [XGTACX_site3051]”: the “gcPBM binding intensity (ln)” value was determined as 11 ± 0.69. For “TATTGACAAAATAGCTGTACAAATTAAAAGAAATAA [XGTACX_site4415]” the value was 10.8 ± 0.49; for “TTTTTATTACATAATTAAAAAAAATAATAAAATAAA [XGTACX_negctrl_site249]”, 9.69 ± 0.16. Turning to “TTTTTTTTTTAATTCGCACACTGTCTTCATACAATT [CACACA_site1379]”, the “gcPBM binding intensity (ln)” value amounted to 10.11 ± 0.078. On to “ATATATATATATTTATGTACTTAATAATTTATTCAC [XGTACX_site7301]”, for which the “gcPBM binding intensity (ln)” value came out at 11.3 ± 0.9.

As to “TGCAGTCTGGAGAAAAGTACATAGTATCTGGTAACC [XGTACX_site2019]”, the “gcPBM binding intensity (ln)” value was determined as 11.4 ± 0.87. For “ATGGTACACAAATATACATGCAATAATAAAAAAAAA [TGCATGCA_site879]” the value was 11 ± 1.1; for “TAATATCTAAAAAATATATTTTTTATTTTTTATTAA [CACACA_negctrl_site510]”, 9.495 ± 0.035; for “ATATCATTAAAAGGATGTACATATGTGTATACAATA [XGTACX_site871]”, 11.2 ± 0.61. For “TACATACATACATACACACACACATATATATACATA [CACACA_site853]” the value was 10.5 ± 0.3. For “TAAAAAATATAAACTGCACACACAAAAAAAAAAGAG [CACACA_site8379]” the value was 10.9 ± 0.64; for “AATTTAAAATAATATTGTACTTAGATATAAATATGA [XGTACX_site4198]”, 11 ± 0.78.

Consider “ATGGGAATATAATTATGTACATATAAAAATTATAAA [XGTACX_site5336]”, for which the “gcPBM binding intensity (ln)” value stood at 11.2 ± 0.73. “TAATTATGCAGACACACACACACACGCAACTAAAAA [CACACA_site7253]”: the “gcPBM binding intensity (ln)” value worked out at 10.3 ± 0.33. Regarding “CATTAATATATATATACATGCACGTTTTAAAAAAAA [TGCATGCA_site875]”, the “gcPBM binding intensity (ln)” value was found to be 10.1 ± 0.23. Consider “TAACAAAGGAAAGATATACACACGTATGCATGATAA [CACACA_site2520]”, for which the “gcPBM binding intensity (ln)” value came to 10.09 ± 0.021. “TCATTTCACGGACACACACACACAATATATTTCCTT [CACACA_site6023]”: the “gcPBM binding intensity (ln)” value turned out to be 11.4 ± 0.75. The figure for “AAAAAATATTTTTACAGTACATATATATAAAATGTT [XGTACX_site3215]” is 10.9 ± 0.58; for “ATATTTTTCAAACATCGTACATTATGAGTTAAAATT [XGTACX_site584]” it is 10.8 ± 0.56; for “ATACACAAAATTATTAAATCAATAAATATATGGTTT [CACACA_negctrl_site353]” it is 9.63 ± 0.085. Consider “TGTATGAAATATATTACACACATATATAATATATAT [CACACA_site793]”, for which the “gcPBM binding intensity (ln)” value amounted to 9.73 ± 0.028. For “GTGTAAATAAGGATATATAACAATCAACAAAACATA [CACACA_negctrl_site1759]” the value was 10.15 ± 0.092; for “TTCAGTGTATACATATGTACATATATATATATATAT [XGTACX_site1621]”, 11.3 ± 0.56; for “ATTTTTATTTGTTACGCATGCATAAAAGTGCATACT [TGCATGCA_site547]”, 10.3 ± 0.22. Turning to “TTGTAATATATGTATTGTACGCATATAACAATTATT [XGTACX_site3652]”, the “gcPBM binding intensity (ln)” value was 11.5 ± 1.1. For “TTATAAATGAATAAATGTACAAAATATATATATATA [XGTACX_site8829]” the value was 10.6 ± 0.27.

CATAACATAAAATAGGTGCACAAAAATTGTAATTGA: the “gcPBM binding intensity (ln)” value was found to be 10.4 ± 0.13. The figure for “CACACCCACCAACACACACACACACCCACCCATATA [CACACA_site366]” is 10.2 ± 0.32.
